Starred links: 1 amine or outer side, 2 acyl side, 3 side chain; linkers in the order of their positions; H or OH if unused. Non-standard residues stand in square brackets, D forms with d. Residues, ends and D or L forms follow the SMILES beside them. ξ: configuration not given here. *: point of attachment. Pro(trans-4-NH2) = O=C([C@@H]1C[C@@H](N[*:3])CN1[*:1])[*:2]; X5 = O=C(N[C@@H]1C[C@@H](C(=O)[*:2])N([*:1])C1)OCc1ccccc1; X15 = O=C(NCCN(CC(=O)[*:2])[*:1])c1ccccc1; Met(O2) = CS(=O)(=O)CC[C@H](N)C(=O)O; X1 = CCC[C@H](N[*:1])C(=O)C(=O)[*:2]; X32 = CS(=O)(=O)CC(N[*:1])C(=O)[*:2]; Fmoc = O=C(OCC1c2ccccc2-c2ccccc21)*; X3 = CCCC(N[*:1])C(=O)C(=O)[*:2]; Cha = N[CH](CC1CCCCC1)C(=O)O; Chg = N[CH](C(=O)O)C1CCCCC1; ξE = NC(CCC(=O)O)C(=O)O; NH(propargyl) = C#CCN*; ξV = CC(C)C(N)C(=O)O; OtBu = CC(C)(C)O*; NHAllyl = C=CCN*; βAla = NCCC(=O)O; Sar = CNCC(=O)O; OAll = C=CCO*
These compounds were tested against Recombinant heterodimeric HCV NS3/NS4A protease (strain 1a) (Hepatitis C virus genotype 1a, UniProt P27958) (assay: biochemical). Details: Ki* Range.

`CCCC(NC(=O)C(CC1CCCCC1)NC(=O)C(NC(=O)C(NC(=O)C(CCC(=O)O)NC(=O)C(CCC(=O)O)NC(C)=O)C(C)C)C1CCCCC1)C(=O)C(=O)NCC(=O)O` (stereo not drawn) [Compound 82] (Ac-EEV[Chg][Cha][X3]G-OH; configuration not given here) and `C=CCOC(=O)CNC(=O)C(=O)C(CCC)NC(=O)C(CC1CCCCC1)NC(=O)C(NC(=O)C(NC(=O)C(CCC(=O)O)NC(=O)C(CCC(=O)O)NC(C)=O)C(C)C)C1CCCCC1` (stereo not drawn) [Compound 81] (Ac-EEV[Chg][Cha][X3]G-OAll; configuration not given here) fall in the same range of Ki: 1 to 100 nM for the first, 1 to 100 nM for the second.

`CCC[C@H](NC(=O)[C@H](CCS(C)(=O)=O)NC(=O)[C@@H](NC(=O)[C@@H](NC(=O)[C@H](CCC(=O)O)NC(=O)[C@H](CCC(=O)O)NC(C)=O)C(C)C)C(C)C)C(=O)C(=O)NCC(=O)O` [Ac-EEVV-M(O2)-nV-(CO)-G-OH] (Ac-EEVV[Met(O2)][X1]G-OH) and `CCC[C@H](NC(=O)CN(C)C(=O)[C@@H](NC(=O)[C@@H](NC(=O)[C@H](CCC(=O)O)NC(=O)[C@H](CCC(=O)O)NC(C)=O)C(C)C)C(C)C)C(=O)C(=O)NCC(=O)O` [Ac-EEVV-Sar-nV-(CO)-G-OH] (Ac-EEVV[Sar][X1]G-OH) fall in the same range of Ki: 101 to 999 nM for the first, 101 to 999 nM for the second.

`C=CCOC(=O)CNC(=O)C(=O)C(CCC)NC(=O)[C@@H]1C[C@@H](NC(=O)OCc2ccccc2)CN1C(=O)C(NC(=O)C(NC(=O)C(CCC(=O)O)NC(=O)C(CCC(=O)O)NC(C)=O)C(C)C)C(C)C` (stereo partly drawn) [Compound 39] (Ac-[ξE][ξE][ξV][ξV][X5][X3]G-OAll) and `CCC[C@H](NC(=O)[C@@H]1C[C@@H](NC(=O)OCC2c3ccccc3-c3ccccc32)CN1C(=O)[C@@H](NC(=O)[C@@H](NC(=O)[C@H](CCC(=O)O)NC(=O)[C@H](CCC(=O)O)NC(C)=O)C(C)C)C(C)C)C(=O)C(=O)NCC(=O)O` [Ac-EEVV-P(4t-NH-Fmoc)-nV-(CO)-G-OH] (Ac-EEVV[Pro(trans-4-NH2)](Fmoc)[X1]G-OH) fall in the same range of Ki: 1 to 100 nM for the first, 1 to 100 nM for the second.

`CCCC(NC(=O)C(CS(C)(=O)=O)NC(=O)C(NC(=O)C(NC(=O)C(CCC(=O)O)NC(=O)C(CCC(=O)O)NC(C)=O)C(C)C)C1CCCCC1)C(=O)C(=O)NCC(=O)O` (stereo not drawn) [Compound 88] (Ac-EEV[Chg][X32][X3]G-OH; configuration not given here) and `CCC[C@H](NC(=O)[C@@H]1CCCN1C(=O)[C@@H](NC(=O)[C@@H](NC(=O)[C@H](CCC(=O)O)NC(=O)[C@H](CCC(=O)O)NC(C)=O)C(C)C)C(C)C)C(=O)C(=O)NCCC(=O)O` [Compound 26] (Ac-EEVVP[X1][βAla]-OH) fall in the same range of Ki: 101 to 999 nM for the first, 101 to 999 nM for the second.

`C=CCOC(=O)CNC(=O)C(=O)C(CCC)NC(=O)[C@@H]1CCCN1C(=O)[C@@H](NC(=O)[C@@H](NC(=O)[C@H](CCC(=O)OC(C)(C)C)NC(=O)[C@H](CCC(=O)OC(C)(C)C)NC(C)=O)C(C)C)C1CCCCC1` (stereo partly drawn) [Compound 54] (Ac-E(OtBu)E(OtBu)V[Chg]P[X3]G-OAll) and `C=CCNC(=O)C(=O)C(CCC)NC(=O)[C@@H]1CCCN1C(=O)[C@@H](NC(=O)[C@@H](NC(=O)[C@H](CCC(=O)OC(C)(C)C)NC(=O)[C@H](CCC(=O)OC(C)(C)C)NC(C)=O)C(C)C)C(C)C` (stereo partly drawn) [Compound 5] (Ac-E(OtBu)E(OtBu)VVP[X3]-NHAllyl) fall in the same range of Ki: 101 to 999 nM for the first, 101 to 999 nM for the second.

First: C#CCNC(=O)C(=O)[C@H](CCC)NC(=O)[C@@H]1CCCN1C(=O)[C@@H](NC(=O)[C@@H](NC(=O)[C@H](CCC(=O)OC(C)(C)C)NC(=O)[C@H](CCC(=O)OC(C)(C)C)NC(C)=O)C(C)C)C(C)C [Compound 13] (Ac-E(OtBu)E(OtBu)VVP[X1]-{NH(propargyl)})
Second: CCC[C@H](NC(=O)CN(CCNC(=O)c1ccccc1)C(=O)[C@@H](NC(=O)[C@@H](NC(=O)[C@H](CCC(=O)O)NC(=O)[C@H](CCC(=O)O)NC(C)=O)C(C)C)C(C)C)C(=O)C(=O)NCC(=O)O [Ac-EEVV-G(N-Et(NHBz))-nV-(CO)-G-OH, Ac-Glu-Glu-Val-Val-Gly(N-Et(NHBz))-nVal(CO)-Gly-OH] (Ac-EEVV[X15][X1]G-OH)
The Ki of the first is higher: 1000 to 10000 nM for the first, 101 to 999 nM for the second. The second binds more tightly here.
